The values that follow come from article PMC4336329 (PLoS ONE, 2015).

About 2,200 (0.71%) of roughly 310,000 compounds showed an effect of 50% or more. Effects have a minus sign here. The list shows a part of the results.

In the test the target is human ether-à-go-go-related gene (hERG) potassium channel (human, UniProt Q12809). The experiment in a line: primary screen, population patch clamp on CHO cells stably expressing hERG.
Chain of human ether-à-go-go-related gene (hERG) potassium channel (Q12809 whole entry, looked up): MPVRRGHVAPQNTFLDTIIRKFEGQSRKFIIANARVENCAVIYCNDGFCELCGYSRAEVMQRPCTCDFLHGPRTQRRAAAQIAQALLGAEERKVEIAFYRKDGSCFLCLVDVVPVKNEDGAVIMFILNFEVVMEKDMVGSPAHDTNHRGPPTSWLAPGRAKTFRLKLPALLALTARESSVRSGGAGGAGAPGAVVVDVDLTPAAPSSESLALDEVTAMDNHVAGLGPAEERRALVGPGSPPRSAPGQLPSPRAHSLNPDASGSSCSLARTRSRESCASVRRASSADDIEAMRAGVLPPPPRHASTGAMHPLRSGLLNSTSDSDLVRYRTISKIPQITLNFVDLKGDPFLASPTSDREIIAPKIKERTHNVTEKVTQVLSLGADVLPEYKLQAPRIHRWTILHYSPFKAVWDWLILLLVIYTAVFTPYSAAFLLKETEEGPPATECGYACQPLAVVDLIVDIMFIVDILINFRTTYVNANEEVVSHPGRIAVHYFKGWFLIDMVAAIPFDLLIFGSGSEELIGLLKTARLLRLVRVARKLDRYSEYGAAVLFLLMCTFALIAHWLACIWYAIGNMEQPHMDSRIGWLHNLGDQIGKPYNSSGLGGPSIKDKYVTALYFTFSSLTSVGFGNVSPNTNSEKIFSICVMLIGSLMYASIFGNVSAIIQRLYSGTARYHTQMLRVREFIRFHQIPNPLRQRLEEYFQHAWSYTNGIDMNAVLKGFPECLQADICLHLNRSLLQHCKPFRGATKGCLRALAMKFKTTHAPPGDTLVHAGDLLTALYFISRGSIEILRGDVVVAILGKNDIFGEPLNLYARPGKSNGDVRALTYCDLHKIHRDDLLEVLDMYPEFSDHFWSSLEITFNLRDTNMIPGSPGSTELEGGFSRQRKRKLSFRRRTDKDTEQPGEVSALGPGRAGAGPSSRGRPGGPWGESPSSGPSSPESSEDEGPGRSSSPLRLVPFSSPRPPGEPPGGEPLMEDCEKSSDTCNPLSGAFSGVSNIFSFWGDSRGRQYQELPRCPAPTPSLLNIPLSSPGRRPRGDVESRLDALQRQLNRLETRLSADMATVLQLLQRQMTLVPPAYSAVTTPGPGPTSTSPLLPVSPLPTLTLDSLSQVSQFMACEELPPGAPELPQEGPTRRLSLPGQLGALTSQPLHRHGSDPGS
`COCCCNC(=O)C(=O)NC1CCCCCC1`: the “hERG current change (%, negative = inhibition) at 1uM” value was 13.5%.
For the molecule `O=c1cc(CSc2nnc(COc3ccccc3)n2-c2ccccc2)c2ccccc2[nH]1`, the “hERG current change (%, negative = inhibition) at 1uM” value was determined as 3.81%.
With `C=C(C)CN(CC)C(=O)CC1C(=O)NCCN1CC(C)(C)C` (centres unmarked), the “hERG current change (%, negative = inhibition) at 1uM” value turned out to be 12.5%.
As for `O=C(/C=C/c1cccnc1)c1ccccc1O`, the figure is 12.8%; as for `Clc1ccc(CSc2nc3ccncc3[nH]2)cc1`, 6.98%; as for `CC(C)(Oc1ccc(Cl)cc1)C(=O)NCC(c1cccs1)N1CCOCC1` (centres unmarked), 6.3%.
As for `NS(=O)(=O)c1cccc(NC(=O)/C=C/c2cccs2)c1`, the figure is 12.1%.
As for `COc1ccc(C(CNC(=O)CCNC(=O)c2ccccc2Cl)N2CCCC2)cc1` (centres unmarked), the figure is 12.4%; as for `CSc1sc(C(=O)NCC2CC2)c2c1S(=O)(=O)N(C)c1ccccc1-2`, 6.81%; as for `Cc1cc(C)n2nc(C(=O)NNC(=O)c3ccc(Cl)cc3)nc2n1`, 3.63%.
Regarding `CC(C)C[C@H](NC(=O)Nc1cccc(C(F)(F)F)c1)C(=O)O`, the “hERG current change (%, negative = inhibition) at 1uM” value was determined as 8.2%.
Consider `COc1ccc(/C=N/N2CCN(C)CC2)cc1OC`, for which the “hERG current change (%, negative = inhibition) at 1uM” value stood at 15.8%.
With `CCC(=O)NC(c1ccc(OC)cc1)c1cc(Cl)c2cccnc2c1O` (centres unmarked), the “hERG current change (%, negative = inhibition) at 1uM” value worked out at 17.5%.
As for `COc1ccc(CCC(=O)Nc2c(C)n(C)n(-c3ccccc3)c2=O)cc1`, the figure is 13.8%.
For `COc1cccc(C2=NN(C(=O)c3ccco3)C(c3ccco3)C2)c1` (centres unmarked), the “hERG current change (%, negative = inhibition) at 1uM” value turned out to be 11.4%.
Regarding `Cc1ccc(NC(=O)Cc2nnc(SCC(=O)NC3=NCCS3)n2C)cc1`, the “hERG current change (%, negative = inhibition) at 1uM” value stood at 12.9%.
In the case of `CCOC(=O)C1CCCCN1C(=O)CCc1c(C)nc2ncnn2c1C` (centres unmarked) it was 11.5%; in that of `O=C(COC(=O)c1cnccn1)NCc1ccccc1`, 11.1%; in that of `COCCNC(=O)C1CCCN(S(=O)(=O)c2ccc3c(c2)CC(C)N3C(=O)C2CC2)C1` (centres unmarked), 6.1%.
As for `CCN(CC)CCC(c1ccc2c(c1)OCO2)c1c(O)cc(OC)cc1OC` (centres unmarked), the figure is -73.4%.
In the case of `CCn1cc(CCCC(=O)NCc2ccc(OC)cc2)c2ccccc21` it was 15.1%.
With `CCOC(=O)c1c[nH]c(=O)c(Br)c1O`, the “hERG current change (%, negative = inhibition) at 1uM” value stood at 8.68%.
As for `c1coc(-c2nnc3sc(Cc4cccs4)nn23)c1`, the “hERG current change (%, negative = inhibition) at 1uM” value is on record as -14.4%.
For the molecule `CC(OC(=O)c1nc(Cl)ccc1Cl)C(=O)NC1CCCCC1C` (centres unmarked), the “hERG current change (%, negative = inhibition) at 1uM” value came out at 22%.
As for `O=C(CSc1ccccc1)N1CCCC(N2CCN(c3ccc(F)cc3)CC2)C1` (centres unmarked), the figure is -56%; as for `CCC(C)(C(=O)NC1CCCC1)N(C(=O)CC1NC(=O)NC1=O)c1ccc(C)cc1` (centres unmarked), 3.97%.
In the case of `Cc1cccc(OCC(=O)Nc2ccc(C(=O)NCC(C)C)cc2)c1` it was 4.42%; in that of `CCOC(=O)c1ccc(N2C(=O)c3n[nH]c(C)c3C2c2ccccn2)cc1` (centres unmarked), 8.72%; in that of `Cc1ccc(-n2c(SCC(=O)OC(C)C)nnc2-c2cnccn2)cc1`, 8.6%.
With `Cc1ccc(C)c(OCCC(=O)Nc2cccc(S(=O)(=O)N3CCCCC3)c2)c1`, the “hERG current change (%, negative = inhibition) at 1uM” value was -1.07%.
In the case of `CC(C)C(=O)Nc1nnc(SCC(=O)N2c3ccccc3CC2C)s1` (centres unmarked) it was 8.12%; in that of `COc1ccc(Cl)cc1NC(=O)Cc1c(F)cccc1Cl`, 6.41%.
In the case of `Cc1onc(-c2ccccc2)c1C(=O)n1nnc2ccccc21` it was 8.95%; in that of `COc1cc2cc(C(c3nnnn3C3CCCCC3)N(C)C3CCCCC3)c(=O)[nH]c2cc1OC` (centres unmarked), 2.42%.
In the case of `O=C(O)C1=C[C@H](c2coc3ccccc3c2=O)C[C@H](OCCCCO)O1` it was 12.3%; in that of `CCC(C)NC(=O)NCc1ccccc1F` (centres unmarked), 11.2%; in that of `COC(=O)C1=C(C)N(Cc2ccccc2)C(=NCc2ccccc2)N[C@H]1c1cccc(F)c1`, 11.8%.
Regarding `Oc1cccc(/C=N\Nc2nncc(-c3ccccc3)n2)c1`, the “hERG current change (%, negative = inhibition) at 1uM” value is recorded as 7.67%.
As to `CC(C)(Oc1ccc(Cl)cc1)C(=O)NC1CC1`, the “hERG current change (%, negative = inhibition) at 1uM” value is -0.896%.
As for `CCN(CC)S(=O)(=O)c1ccc(OC)c(NC(=O)Cn2cnc3c2c(=O)n(C)c(=O)n3C)c1`, the figure is -13.4%; as for `Cn1c(=O)c(=O)n(C)c2cc(S(=O)(=O)N3CCC(Cc4ccccc4)CC3)ccc21`, -6.29%.
In the case of `Cn1c(CNC(=O)c2ccccc2F)nnc1SCc1ccc(Cl)cc1` it was 3.8%; in that of `CCc1nn2c(=O)c(S(=O)(=O)Nc3ccc(C(C)C)cc3)c(C)nc2s1`, 6.3%.
In the case of `Cc1onc(-c2ccccc2Cl)c1C(=O)NNC(=O)c1cccc(F)c1`, the “hERG current change (%, negative = inhibition) at 1uM” value was determined as 12.2%.
